This test addresses His-hTERT fusion protein (human, UniProt O14746). The experiment in a line: pull-down.

B1: GST-Sp1 fusion protein (natural protein)
chain: MSDQDHSMDEMTAVVKIEKGVGGNNGGNGNGGGAFSQARSSSTGSSSSTGGGGQESQPSPLALLAATCSRIESPNENSNNSQGPSQSGGTGELDLTATQLSQGANGWQIISSSSGATPTSKEQSGSSTNGSNGSESSKNRTVSGGQYVVAAAPNLQNQQVLTGLPGVMPNIQYQVIPQFQTVDGQQLQFAATGAQVQQDGSGQIQIIPGANQQIITNRGSGGNIIAAMPNLLQQAVPLQGLANNVLSGQTQYVTNVPVALNGNITLLPVNSVSAATLTPSSQAVTISSSGSQESGSQPVTSGTTISSASLVSSQASSSSFFTNANSYSTTTTTSNMGIMNFTTSGSSGTNSQGQTPQRVSGLQGSDALNIQQNQTSGGSLQAGQQKEGEQNQQTQQQQILIQPQLVQGGQALQALQAAPLSGQTFTTQAISQETLQNLQLQAVPNSGPIIIRTPTVGPNGQVSWQTLQLQNLQVQNPQAQTITLAPMQGVSLGQT[about 120 residues left out here]DSEGRGSGDPGKKKQ[about 80 residues left out here]QNKKGGPGVALSVGTLPLDSGAGSEGSGTATPSALITTNMVAMEAICPEGIARLANSGINVMQVADLQSINISGNGF
Consider B1, for which the binding result is recorded as “binds”.

Values taken from article PMC5062966 (Nucleic Acids Research, 2016).
